Of roughly 21,000 targets only a part is listed; those with the largest changes were picked by preference.

Here are results for 38 targets from the supplement of paper PMC12067093, “Discovery and optimisation of a covalent ligand for TRIM25 and its application to targeted protein ubiquitination” (Chemical Science, 2025).
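Note: competitive chemoproteomic profiling in live THP-1 cells with an iodoacetamide desthiobiotin (IA-DTB) probe, comparing probe-labelled peptide intensities in compound-treated cells against DMSO-treated controls.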

Chain of UniProt Q13011 (Q13011 whole entry, looked up): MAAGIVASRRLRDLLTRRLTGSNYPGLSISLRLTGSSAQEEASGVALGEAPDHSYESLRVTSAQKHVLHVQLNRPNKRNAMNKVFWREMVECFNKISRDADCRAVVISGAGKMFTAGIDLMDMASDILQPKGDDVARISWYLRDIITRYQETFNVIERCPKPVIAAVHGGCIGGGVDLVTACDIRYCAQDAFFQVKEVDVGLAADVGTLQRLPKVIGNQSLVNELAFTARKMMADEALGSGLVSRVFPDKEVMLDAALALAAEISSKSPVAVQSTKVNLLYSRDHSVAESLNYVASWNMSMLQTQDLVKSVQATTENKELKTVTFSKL
Chain of UniProt Q15029 (Q15029 whole entry, looked up): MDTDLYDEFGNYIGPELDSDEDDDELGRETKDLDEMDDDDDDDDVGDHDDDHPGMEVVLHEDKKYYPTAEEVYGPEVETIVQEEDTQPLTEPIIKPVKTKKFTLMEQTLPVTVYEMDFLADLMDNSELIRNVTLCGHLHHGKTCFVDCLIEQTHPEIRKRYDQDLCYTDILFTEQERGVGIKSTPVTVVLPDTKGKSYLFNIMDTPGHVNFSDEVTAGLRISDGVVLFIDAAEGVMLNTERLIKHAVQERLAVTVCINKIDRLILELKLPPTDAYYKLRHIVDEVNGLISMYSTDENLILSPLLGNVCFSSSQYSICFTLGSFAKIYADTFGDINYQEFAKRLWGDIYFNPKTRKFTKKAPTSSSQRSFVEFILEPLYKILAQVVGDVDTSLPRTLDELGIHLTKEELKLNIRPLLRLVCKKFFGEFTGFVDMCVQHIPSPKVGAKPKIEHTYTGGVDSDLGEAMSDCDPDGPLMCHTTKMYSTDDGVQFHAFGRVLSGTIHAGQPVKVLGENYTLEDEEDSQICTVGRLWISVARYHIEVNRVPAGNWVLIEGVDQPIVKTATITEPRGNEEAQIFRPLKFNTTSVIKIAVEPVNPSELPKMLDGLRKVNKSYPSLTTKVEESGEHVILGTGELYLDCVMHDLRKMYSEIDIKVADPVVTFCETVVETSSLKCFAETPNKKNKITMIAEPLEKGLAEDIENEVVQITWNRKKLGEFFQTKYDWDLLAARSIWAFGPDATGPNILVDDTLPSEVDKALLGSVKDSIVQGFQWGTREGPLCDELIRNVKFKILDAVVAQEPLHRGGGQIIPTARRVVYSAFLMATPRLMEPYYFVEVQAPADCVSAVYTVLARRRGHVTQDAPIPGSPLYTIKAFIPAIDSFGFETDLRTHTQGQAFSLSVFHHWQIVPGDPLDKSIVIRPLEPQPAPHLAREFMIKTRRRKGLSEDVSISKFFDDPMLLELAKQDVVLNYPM
Chain of UniProt O75822 (O75822 whole entry, looked up): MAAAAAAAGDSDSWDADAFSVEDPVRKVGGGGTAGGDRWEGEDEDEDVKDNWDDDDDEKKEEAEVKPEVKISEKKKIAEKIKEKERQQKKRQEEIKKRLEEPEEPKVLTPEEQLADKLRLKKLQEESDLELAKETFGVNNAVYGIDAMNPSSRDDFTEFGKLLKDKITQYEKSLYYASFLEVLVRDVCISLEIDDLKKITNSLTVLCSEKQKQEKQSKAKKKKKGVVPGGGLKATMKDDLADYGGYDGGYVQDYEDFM
Chain of UniProt P02679 (P02679 whole entry, looked up): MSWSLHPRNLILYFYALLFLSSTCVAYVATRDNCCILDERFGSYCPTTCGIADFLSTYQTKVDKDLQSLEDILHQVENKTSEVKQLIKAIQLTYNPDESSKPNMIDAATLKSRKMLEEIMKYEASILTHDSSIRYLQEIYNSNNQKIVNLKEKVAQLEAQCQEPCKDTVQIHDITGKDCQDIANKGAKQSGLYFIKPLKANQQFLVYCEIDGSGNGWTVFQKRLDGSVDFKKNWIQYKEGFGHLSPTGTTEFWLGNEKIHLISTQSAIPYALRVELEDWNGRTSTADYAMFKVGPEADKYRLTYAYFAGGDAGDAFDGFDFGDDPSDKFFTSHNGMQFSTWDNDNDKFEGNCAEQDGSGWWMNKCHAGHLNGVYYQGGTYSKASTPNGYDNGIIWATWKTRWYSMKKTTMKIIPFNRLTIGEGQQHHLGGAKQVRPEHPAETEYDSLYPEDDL
Chain of UniProt Q5VYK3 (Q5VYK3 whole entry, looked up): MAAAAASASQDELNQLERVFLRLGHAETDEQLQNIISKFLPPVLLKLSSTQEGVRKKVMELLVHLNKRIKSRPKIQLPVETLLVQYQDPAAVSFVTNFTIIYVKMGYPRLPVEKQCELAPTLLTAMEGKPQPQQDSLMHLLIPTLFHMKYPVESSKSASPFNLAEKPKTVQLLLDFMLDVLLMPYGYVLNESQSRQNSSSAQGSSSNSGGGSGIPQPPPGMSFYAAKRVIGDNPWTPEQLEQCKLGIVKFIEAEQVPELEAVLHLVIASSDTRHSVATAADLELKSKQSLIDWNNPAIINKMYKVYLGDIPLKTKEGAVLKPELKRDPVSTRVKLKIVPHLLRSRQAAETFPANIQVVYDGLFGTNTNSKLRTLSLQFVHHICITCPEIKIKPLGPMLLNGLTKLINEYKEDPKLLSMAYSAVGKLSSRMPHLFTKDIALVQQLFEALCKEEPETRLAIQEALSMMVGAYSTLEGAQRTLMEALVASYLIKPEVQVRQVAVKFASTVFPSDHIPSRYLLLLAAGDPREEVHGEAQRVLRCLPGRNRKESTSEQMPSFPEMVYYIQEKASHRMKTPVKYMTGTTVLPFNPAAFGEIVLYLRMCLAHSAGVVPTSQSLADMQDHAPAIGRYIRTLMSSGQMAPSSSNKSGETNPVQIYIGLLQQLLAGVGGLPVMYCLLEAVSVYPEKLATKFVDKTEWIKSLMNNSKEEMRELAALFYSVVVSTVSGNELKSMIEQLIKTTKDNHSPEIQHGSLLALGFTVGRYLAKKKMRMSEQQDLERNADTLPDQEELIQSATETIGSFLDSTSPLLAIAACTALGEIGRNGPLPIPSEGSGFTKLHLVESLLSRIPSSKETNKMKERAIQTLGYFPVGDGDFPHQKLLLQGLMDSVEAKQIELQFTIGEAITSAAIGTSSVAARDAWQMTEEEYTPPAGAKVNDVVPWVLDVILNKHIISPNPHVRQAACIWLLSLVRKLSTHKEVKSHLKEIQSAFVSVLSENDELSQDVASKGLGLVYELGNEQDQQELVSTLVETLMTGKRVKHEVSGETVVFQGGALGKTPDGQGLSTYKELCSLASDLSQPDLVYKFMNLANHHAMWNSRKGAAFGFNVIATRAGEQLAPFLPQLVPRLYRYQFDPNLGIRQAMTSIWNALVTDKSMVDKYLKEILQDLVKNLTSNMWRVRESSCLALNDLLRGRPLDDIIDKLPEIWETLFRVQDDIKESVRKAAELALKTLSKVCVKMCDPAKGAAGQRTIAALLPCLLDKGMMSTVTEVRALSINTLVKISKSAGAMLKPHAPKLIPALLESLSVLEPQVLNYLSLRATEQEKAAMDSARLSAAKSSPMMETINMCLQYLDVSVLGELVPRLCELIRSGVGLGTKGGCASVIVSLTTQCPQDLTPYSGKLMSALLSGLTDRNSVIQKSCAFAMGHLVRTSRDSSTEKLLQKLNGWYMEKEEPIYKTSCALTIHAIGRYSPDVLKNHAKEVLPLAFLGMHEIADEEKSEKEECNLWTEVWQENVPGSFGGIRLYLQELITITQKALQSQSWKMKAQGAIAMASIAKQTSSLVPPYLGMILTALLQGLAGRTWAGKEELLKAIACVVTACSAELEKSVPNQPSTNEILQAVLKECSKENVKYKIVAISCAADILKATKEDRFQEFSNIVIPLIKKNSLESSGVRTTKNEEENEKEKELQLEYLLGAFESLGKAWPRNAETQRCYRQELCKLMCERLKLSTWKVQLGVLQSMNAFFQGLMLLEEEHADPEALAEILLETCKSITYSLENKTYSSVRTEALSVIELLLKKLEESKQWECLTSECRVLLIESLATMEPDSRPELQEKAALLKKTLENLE
Chain of UniProt Q13642 (Q13642 whole entry, looked up): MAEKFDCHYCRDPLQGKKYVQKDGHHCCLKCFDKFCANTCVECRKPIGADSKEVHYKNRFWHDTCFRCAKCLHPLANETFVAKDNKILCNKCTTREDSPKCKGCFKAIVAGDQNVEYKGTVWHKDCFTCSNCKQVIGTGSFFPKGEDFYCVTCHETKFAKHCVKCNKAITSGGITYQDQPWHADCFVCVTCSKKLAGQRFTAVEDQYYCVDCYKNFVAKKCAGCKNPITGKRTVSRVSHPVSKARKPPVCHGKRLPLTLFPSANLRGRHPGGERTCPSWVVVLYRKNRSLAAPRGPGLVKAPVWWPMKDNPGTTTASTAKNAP
Chain of UniProt Q02790 (Q02790 whole entry, looked up): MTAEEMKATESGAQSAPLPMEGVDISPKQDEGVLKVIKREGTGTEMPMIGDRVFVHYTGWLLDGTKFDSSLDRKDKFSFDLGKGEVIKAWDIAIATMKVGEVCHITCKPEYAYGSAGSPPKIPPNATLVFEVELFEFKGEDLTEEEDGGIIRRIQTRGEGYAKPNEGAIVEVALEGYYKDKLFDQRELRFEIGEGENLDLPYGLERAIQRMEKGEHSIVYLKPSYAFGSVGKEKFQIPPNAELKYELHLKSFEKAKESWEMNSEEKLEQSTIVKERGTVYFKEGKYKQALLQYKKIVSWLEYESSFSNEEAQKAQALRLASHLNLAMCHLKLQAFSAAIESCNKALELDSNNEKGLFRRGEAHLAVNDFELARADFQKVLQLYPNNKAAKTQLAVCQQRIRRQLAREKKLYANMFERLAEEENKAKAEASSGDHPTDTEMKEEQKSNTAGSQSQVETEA
Chain of UniProt Q9Y624 (Q9Y624 whole entry, looked up, stated change not applied): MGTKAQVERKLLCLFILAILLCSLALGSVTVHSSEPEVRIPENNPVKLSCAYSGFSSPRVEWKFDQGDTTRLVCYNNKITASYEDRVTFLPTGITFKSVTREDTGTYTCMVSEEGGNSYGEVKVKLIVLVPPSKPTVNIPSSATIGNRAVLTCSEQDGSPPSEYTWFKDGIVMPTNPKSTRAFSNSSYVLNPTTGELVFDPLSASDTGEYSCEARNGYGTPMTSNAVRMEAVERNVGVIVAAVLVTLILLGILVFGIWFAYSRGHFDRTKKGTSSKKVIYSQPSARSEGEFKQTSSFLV

Compound in the first test: CC1Cc2ccccc2N1C(=O)C1CCCN(C1)C(=O)CCl (mixture of isomers) [TRIM25 ligand 11 (diastereomer mixture)]
The test can be described thus: probe-labelled cysteine peptide fold change vs DMSO (competition) (log2 fold change); higher = less target engagement (more negative = stronger competition). Particulars: 10 µM; THP-1; incubation time: 4 h.
With “F2_P00734_594_WYQMGIVSWGEGCDR (UniProt P00734)”, the “probe-labelled cysteine peptide fold change” value was 0.929. For “FGG_P02679_34_DNCCILDER (UniProt P02679)”, the “probe-labelled cysteine peptide fold change” value was found to be 0.567. Turning to “FAM3C_Q92520_185_DNWVFCGGK (UniProt Q92520)”, the “probe-labelled cysteine peptide fold change” value turned out to be 0.0668.

Regarding “ERMP1_Q7Z2K6_43_AQEPLVDGCSGGGR (UniProt Q7Z2K6)”, the “probe-labelled cysteine peptide fold change” value was -0.0702. The same measure, in the same setting: in the case of “EME1_Q96AY2_437_ELADFTCAFTK (UniProt Q96AY2)” it was -0.0176; in that of “FYN_P06241_404_SANILVGNGLICK (UniProt P06241)”, -0.0436. Take “ETF1_P62495_302_YCFGVEDTLK (UniProt P62495)”: the “probe-labelled cysteine peptide fold change” value turned out to be 0.296. Same read-out and setting: the figure for F11R_Q9Y624_74_LVCYNNK (UniProt Q9Y624) is 0.0292; for “F2_P00734_391_KSPQELLCGASLISDR (UniProt P00734)” it is 0.655. “FARSB_Q9NSD9_195_EYTACELMNIYK (UniProt Q9NSD9)”: the “probe-labelled cysteine peptide fold change” value was -0.0943. On to “EFTUD2_Q15029_780_EGPLCDELIR (UniProt Q15029)”, for which the “probe-labelled cysteine peptide fold change” value is -0.138. “FYCO1_Q9BQS8_928_ERVEEALACAVQELQDAK (UniProt Q9BQS8)”: the “probe-labelled cysteine peptide fold change” value is 0.00402. Regarding “FUBP1_Q96AE4_148_SCMLTGTPESVQSAKR (UniProt Q96AE4)”, the “probe-labelled cysteine peptide fold change” value was -0.259. Still for that read-out and setting: in the case of “EIF3J_O75822_188_DVCISLEIDDLKK (UniProt O75822)” it was 0.022; in that of “ERO1A_Q96HE7_99_RDCAVKPCQSDEVPDGIK (UniProt Q96HE7)”, 0.066. Still for that read-out and setting: in the case of “FHL1_Q13642_43_FCANTCVECR (UniProt Q13642)” it was 0.0551. For the target “FSCN1_Q16658_121_YFGGTEDRLSCFAQTVSPAEK (UniProt Q16658)”, the “probe-labelled cysteine peptide fold change” value was -0.738.

For “EPRS_P07814_336+337_GSQFGQSCCLR (UniProt P07814)”, the “probe-labelled cysteine peptide fold change” value is -0.0177. Regarding “FKBP4_Q02790_103+107_VGEVCHITCKPEYAYGSAGSPPK (UniProt Q02790)”, the “probe-labelled cysteine peptide fold change” value came to 0.149. Consider “FMR1_Q06787_584_VDCNNER (UniProt Q06787)”, for which the “probe-labelled cysteine peptide fold change” value turned out to be 0.821. On the same count and under the same terms, the figure for “ECH1_Q13011_171_PVIAAVHGGCIGGGVDLVTACDIR (UniProt Q13011)” is 0.217. In the case of “ECPAS_Q5VYK3_116_QCELAPTLLTAMEGKPQPQQDSLMHLLIPTLFHMK (UniProt Q5VYK3)”, the “probe-labelled cysteine peptide fold change” value worked out at 0.139.

Staying with this test, now noted: 50 µM; THP-1; incubation time: 4 h.
Consider “FBXL6_Q8N531_476_DLEQALAAFLSTPGGSHPALCSLNLR (UniProt Q8N531)”, for which the “probe-labelled cysteine peptide fold change” value was -0.209. Same read-out and setting: the figure for “EXOC7_Q9UPT5_367_HGPLAGRDDMLDVETDAYIHCVSAFVK (UniProt Q9UPT5)” is -0.0931; for “FCHSD2_O94868_33_HQAECDLLEDMR (UniProt O94868)” it is -0.0995. The same measure, in the same setting: the figure for “FKBP3_Q00688_133_KGDVVHCWYTGTLQDGTVFDTNIQTSAKK (UniProt Q00688)” is -0.0697; for “ELAVL1_Q15717_13_SNGYEDHMAEDCR (UniProt Q15717)” it is 0.972; for “FAM120A_Q9NZB2_1088+1103_TCNTNPHLNALSTDSACR (UniProt Q9NZB2)” it is -0.743. Take “EEFSEC_P57772_406_AGQATEGHCPR (UniProt P57772)”: the “probe-labelled cysteine peptide fold change” value amounted to 0.9. Regarding “ETV6_P41212_452_TDRLEHLESQELDEQIYQEDEC (UniProt P41212)”, the “probe-labelled cysteine peptide fold change” value was -0.279. On to “FANCI_Q9NVI1_908_SISLLCLEGLQK (UniProt Q9NVI1)”, for which the “probe-labelled cysteine peptide fold change” value was 0.0111. “FILIP1L_Q4L180_990_AQTPESCGSLTPER (UniProt Q4L180)”: the “probe-labelled cysteine peptide fold change” value was -0.0447.

As for “EEF1G_P26641_339_FPEELTQTFMSCNLITGMFQR (UniProt P26641)”, the “probe-labelled cysteine peptide fold change” value was -0.499. The same measure, in the same setting: in the case of “FBXO3_Q9UK99_324_ACQLDSR (UniProt Q9UK99)” it was 0.0189; in that of “FBXL18_Q96ME1_406_HLCQLLAR (UniProt Q96ME1)”, 0.00154. Consider “ENOX2_Q16206_216_DDLYEWECK (UniProt Q16206)”, for which the “probe-labelled cysteine peptide fold change” value stood at 0.162. Same read-out and setting: the figure for “EHD4_Q9H223_495_LADCDCDGMLDEEEFALAK (UniProt Q9H223)” is -0.0124; for “ERO1B_Q86YB8_165_YDDSRDHFCELDDERSPAAQYVDLLLNPER (UniProt Q86YB8)” it is -0.0995. On to “F2_P00734_594_WYQMGIVSWGEGCDR (UniProt P00734)”, for which the “probe-labelled cysteine peptide fold change” value stood at 0.567. “FGG_P02679_34_DNCCILDER (UniProt P02679)”: the “probe-labelled cysteine peptide fold change” value came to 0.313.

As to “FAM3C_Q92520_185_DNWVFCGGK (UniProt Q92520)”, the “probe-labelled cysteine peptide fold change” value amounted to 0.0708. In the case of “ERMP1_Q7Z2K6_43_AQEPLVDGCSGGGR (UniProt Q7Z2K6)”, the “probe-labelled cysteine peptide fold change” value was -0.135. With “EME1_Q96AY2_437_ELADFTCAFTK (UniProt Q96AY2)”, the “probe-labelled cysteine peptide fold change” value was determined as 0.0515. On the same count and under the same terms, in the case of “FYN_P06241_404_SANILVGNGLICK (UniProt P06241)” it was -0.0577. Regarding “ETF1_P62495_302_YCFGVEDTLK (UniProt P62495)”, the “probe-labelled cysteine peptide fold change” value turned out to be 0.118. Consider F11R_Q9Y624_74_LVCYNNK (UniProt Q9Y624), for which the “probe-labelled cysteine peptide fold change” value came out at 0.141.

As to “F2_P00734_391_KSPQELLCGASLISDR (UniProt P00734)”, the “probe-labelled cysteine peptide fold change” value was determined as 0.598. Still for that read-out and setting: in the case of “FARSB_Q9NSD9_195_EYTACELMNIYK (UniProt Q9NSD9)” it was -0.133; in that of “EFTUD2_Q15029_780_EGPLCDELIR (UniProt Q15029)”, -0.127.

“FYCO1_Q9BQS8_928_ERVEEALACAVQELQDAK (UniProt Q9BQS8)”: the “probe-labelled cysteine peptide fold change” value is -0.00394. Same read-out and setting: the figure for “FUBP1_Q96AE4_148_SCMLTGTPESVQSAKR (UniProt Q96AE4)” is -0.0811; for “EIF3J_O75822_188_DVCISLEIDDLKK (UniProt O75822)” it is -0.0275. In the case of “ERO1A_Q96HE7_99_RDCAVKPCQSDEVPDGIK (UniProt Q96HE7)”, the “probe-labelled cysteine peptide fold change” value is -0.0613. In the case of “FHL1_Q13642_43_FCANTCVECR (UniProt Q13642)”, the “probe-labelled cysteine peptide fold change” value came out at 0.0815. For “FSCN1_Q16658_121_YFGGTEDRLSCFAQTVSPAEK (UniProt Q16658)”, the “probe-labelled cysteine peptide fold change” value is -0.364. As for “EPRS_P07814_336+337_GSQFGQSCCLR (UniProt P07814)”, the “probe-labelled cysteine peptide fold change” value is -0.139. On the same count and under the same terms, the figure for “FKBP4_Q02790_103+107_VGEVCHITCKPEYAYGSAGSPPK (UniProt Q02790)” is 0.134; for “FMR1_Q06787_584_VDCNNER (UniProt Q06787)” it is 0.479; for “ECH1_Q13011_171_PVIAAVHGGCIGGGVDLVTACDIR (UniProt Q13011)” it is 0.648.

Take “ECPAS_Q5VYK3_116_QCELAPTLLTAMEGKPQPQQDSLMHLLIPTLFHMK (UniProt Q5VYK3)”: the “probe-labelled cysteine peptide fold change” value is -0.227.
